# Test results published in article PMC6919601, “Identification of Plasmodium dipeptidyl aminopeptidase allosteric inhibitors by high throughput screening” (PLoS ONE, 2019).
# “And” between values parts separate entries of the source, which are not always exact repeats. Identical values can stand only once. Hit rate of the full screen: of about 110,000 compounds, about 230 (0.21%) showed an effect of 50% or more. The list shows a part of the results.
# Target: DPAP1 (Plasmodium falciparum, UniProt Q8IIJ9)
# Assay: primary screen, percent inhibition; read by cleavage of a fluorogenic dipeptide substrate; higher = more effect of the substance
# Parameters: species or system P. falciparum D10 trophozoite lysates; single well
# 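Also: 30 min substrate incubation versus DMSO and 10 µM JCP410 controls.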
# DPAP1, sequence (Q8IIJ9 whole entry, looked up): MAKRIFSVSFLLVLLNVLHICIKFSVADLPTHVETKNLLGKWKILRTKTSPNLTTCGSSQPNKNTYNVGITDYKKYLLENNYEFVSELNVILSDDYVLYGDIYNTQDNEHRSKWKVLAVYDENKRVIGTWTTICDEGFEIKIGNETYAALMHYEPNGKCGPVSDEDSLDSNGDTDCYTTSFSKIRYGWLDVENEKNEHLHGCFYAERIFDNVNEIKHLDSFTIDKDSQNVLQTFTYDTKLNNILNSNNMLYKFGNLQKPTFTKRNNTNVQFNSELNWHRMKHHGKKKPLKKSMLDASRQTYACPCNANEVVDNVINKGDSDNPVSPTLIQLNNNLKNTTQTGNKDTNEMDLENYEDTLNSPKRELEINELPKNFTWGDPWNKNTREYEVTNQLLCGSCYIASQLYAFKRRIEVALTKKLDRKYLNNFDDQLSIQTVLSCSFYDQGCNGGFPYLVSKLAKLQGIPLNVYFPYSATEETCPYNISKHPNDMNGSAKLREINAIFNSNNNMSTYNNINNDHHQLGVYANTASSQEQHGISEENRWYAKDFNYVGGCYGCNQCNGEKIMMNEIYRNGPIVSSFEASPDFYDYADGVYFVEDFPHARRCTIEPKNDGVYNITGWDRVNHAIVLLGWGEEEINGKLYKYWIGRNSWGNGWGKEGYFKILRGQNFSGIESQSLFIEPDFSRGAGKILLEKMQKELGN
row,SMILES,% Inhibition @ 10 uM
1,O=C(c1ccc2nc(N3CCCCC3)sc2c1)N1CCC(Cc2ccccc2)CC1,4.22%
2,COc1ccc(-c2nocc2C#N)cc1,-2.35%
3,NC(=O)C1CCCN(Cc2cccc(Cl)c2)C1 (stereo not shown),1.88%
4,Cc1cc(C)c(S(=O)(=O)N(CC(=O)N2CCC(C)CC2)Cc2ccccc2)c(C)c1,6.79%
5,Cc1c(CC(=O)NCc2ccccc2)c(=O)oc2cc(O)c(Cl)cc12,2.54%
6,Cc1ccc(CNC(=O)c2nnc(CS(=O)(=O)c3ccccc3)o2)cc1,-2.78%
7,CCOC(=O)C1=C(C)N=c2s/c(=C\c3ccncc3)c(=O)n2C1c1ccc(OCC)c(OCC)c1 (stereo not shown),-5.26%
8,CC(=O)N(C)c1ccc(NC(=O)c2ccc(Br)cc2)cc1,-2.85%
9,Cc1sc(C2C(C#N)=C(N)OC3=C2C(=O)CCC3)cc1CSc1nc2ccccc2s1 (stereo not shown),2.62%
10,O=C1CC(c2ccccc2)CC(=O)C1=CNCCN1CCN(C2OC(=O)c3ccccc32)CC1 (stereo not shown),-1.92%
11,Cc1ccc(S(=O)(=O)NCC2CCC(C(=O)NCC(C)c3ccccc3)CC2)cc1 (stereo not shown),-2.72%
12,CC(C)CCNC(=O)c1cc2sc(Cl)cc2n1C,-6.68%
13,CCCn1c2ccccc2c2cnn(CC(=O)NC3CCCCC3)c(=O)c21,-1.96%
14,C=CCOc1ccc(C2c3c(oc4ccccc4c3=O)C(=O)N2Cc2ccc3c(c2)OCO3)cc1 (stereo not shown),-6.94%
15,NC(=O)c1ccc(SCC(=O)O)c([N+](=O)[O-])c1,-2.66%
16,Cc1[nH]c2ccccc2c1CCNC(=O)COc1ccc(F)cc1F,2.49%
17,O=C(c1ccc2c(c1)c1ccccc1n2Cc1ccccc1)C(F)(F)F,0.526%
18,CCOc1ccccc1NC(=O)CN(c1ccc(C)cc1C)S(C)(=O)=O,6.69%
19,Cc1c(C)n(C)c2ccc(C(=O)NCCN3CCCC3)cc12,-2.1%
20,O=C(NCc1ccccc1F)C1CCCN(c2cnccn2)C1 (stereo not shown),-2.84%
21,CCc1ccccc1NC(=O)c1ccoc1C,1.86%
22,O=C(Nc1nccs1)C1CCCN(S(=O)(=O)c2cccc3cccnc23)C1 (stereo not shown),-10.4%

row,SMILES,% Inhibition @ 10 uM
1,N#CC1C(=O)NC(=S)N(c2ccccc2)C1c1ccccc1 (stereo not shown),-3.27%
2,CC(CCC(=O)O)C1CCC2C3CC=C4CC(O)CCC4(C)C3CCC12C (stereo not shown),-4.93%
3,O=C(CCc1nc2cccnc2n1Cc1cccs1)NCCc1cccs1,-3.45%
4,COc1ccc2sc(NC(=O)Cc3cn(C)c4ccccc34)nc2c1,1.08%
5,CN(C)/C=C1/C(=O)N(c2nc3ccccc3s2)N=C1c1ccccc1,1.26%
6,O=C(NCC(O)c1ccccc1)c1cccc(Cl)c1 (stereo not shown),-2.51%
7,COCCNC(=O)C(CC(C)C)N1Cc2ccccc2C1=O (stereo not shown),1.31%
8,CCOc1ccc(NC(=O)Cn2cnc3c(=O)n(C)c(=O)n(C)c32)cc1,6.69%
9,CCOC(=O)N1CCC(NC(=O)CCc2c(C)nc3nc(C)nn3c2C)CC1,-0.465%
10,COc1ccc(S(=O)(=O)Nc2ccc(-c3cn4ccsc4n3)cc2)cc1OC,-0.99%
11,CCN1CCC(NC(c2ccccc2)c2ccccc2)CC1,-3.6%
12,COCC(=O)Nc1nc2nc(C)c(C)c(O)n2n1,0.401%
13,O=C(NCC1CCCO1)c1ccc(Cl)cc1 (stereo not shown),-6.44%
14,COc1ccc(-n2c(SCC(N)=O)nnc2-c2cccs2)cc1,-1.52%
15,C=CCN1C(=O)/C(=C\c2cccc(Cl)c2)C(C(=O)OC)=C1C,0.0538% and -5.26%
16,COC(=O)C1=CN(C)C=C(C(=O)OC)C1c1cc(OC)c(OC)c(OC)c1,-1.48%
17,Cc1ccccc1COc1ccc(/C=C2/C(=N)N3C(=NC2=O)SN=C3S(C)(=O)=O)cc1,1.85%
18,CSc1ccc(CCNC(=O)CCC(=O)N2Cc3ccccc3Oc3ncccc32)cc1,2.33%
19,CCC(C)c1ccccc1OCC(=O)Nc1cnc(O)nc1O (stereo not shown),1.96%
20,N#Cc1ccc(Oc2ccc(NC(=O)c3ccc(Br)o3)cc2)cc1,-0.63%
21,C/C(S)=N\c1c(O)[nH]c2ccccc12,-3.13%
22,Cc1ccc(C)n1-c1nnc(N2CCC(C(=O)N3CCN(c4ccccn4)CC3)CC2)s1,2.65%

row,SMILES,% Inhibition @ 10 uM
1,CCCC(=O)Nc1ccc(C(=O)Nc2ccccc2OC)cc1,1.73%
2,Cc1ccc(OCC(=O)Nc2cccc(Cl)c2)cc1,-0.545%
3,Cc1ccc(-c2nc(CS(=O)(=O)CC(=O)NCCC(C)C)c(C)o2)cc1,-7.53%
4,CC(C)CSC1=NSC2=NC(=O)/C(=C\c3coc4ccccc4c3=O)C(=N)N12,17.4%
5,CCc1nnc(OCC(=O)NC2CCN(Cc3ccccc3)CC2)c2cc3cc(F)ccc3n12,4.79%
6,CCCS(=O)(=O)N1CCN(C2CCN(Cc3ccccc3)CC2)CC1,6.89%
7,CCOc1ccc(-c2[nH]nc3c2C(C2CC=CCC2)C(C#N)=C(N)O3)cc1 (stereo not shown),0.722%
8,Cc1ccc(C(C)C)c(OCC(O)CN2CCC(Cc3ccccc3)CC2)c1 (stereo not shown),0.565%
9,Cc1ccsc1CN1CCN(Cc2ccccc2)CC1,-9.41%
10,CCN1CCN(CC(c2ccccc2)c2ccccc2)CC1,-4.14%
11,Cc1[nH]c(-c2ccc(F)cc2)cc1C(=O)N(C)Cc1ccco1,1.68%
12,COc1c(Cl)cc(C(=O)Nc2nc3ccccc3s2)cc1Cl,18.3%
13,COc1ccc(-c2nn(C)c(=O)c3ccccc23)cc1CNC(=O)c1cccs1,-5.24%
14,CC(N)Cc1ccccc1Sc1ccc(O)cc1 (stereo not shown),-4.12%
15,Cc1nc2cc(NC(=O)CNS(=O)(=O)c3c(C)c(C)cc(C)c3C)ccc2s1,-2.98%
16,Cc1cc(O)nc2sc(C(=O)c3ccc(Br)cc3)c(N)c12,3.01%
17,CCCN1C(=O)c2[nH]nc(-c3ccccc3O)c2C1c1ccccc1F (stereo not shown),2.02%
18,Brc1ccc(OCCCCCCN2CCCCC2)cc1,3%
19,CC(O)CN(Cc1c(Cl)cccc1Cl)CC(C)O (stereo not shown),-5.26%
20,Cc1ccc(C2=NN(CCC(=O)NCCc3ccc(Cl)cc3)C(=O)CC2)cc1,-5.43%
